Experimental data as given in the RNAGym collection of RNA variant scans (doi:10.7554/elife.90254).
Read counts are not given, so values of variants with three or more changes are uncertain.

B1: LINE1-full (parent)
chain: UACGUAGGUGGUUUUCCCCUGAUAGUGCUAAGGGGGCCUGGAAGUUUGGACUGGGCAGAGCUCAACACAGCGUGGCAAAGUGGCUGUGGCUAGACUGCCUCUCUGGAUUCCUCGUCACUCAGCAGGGCAUCUCUGAGAGAAAUGCC

Variants of: B1
Test: self-cleavage, relative activity (ratio to wild type); higher = more cleavage; in vitro, sequencing; the parent is a self-cleaving ribozyme

| Variant | self-cleavage |
| --- | --- |
| U1C U81C U96C A121C A138G | 0.92 |
| U1C U45C U46A U81C | 0 |
| A2G U15C U47C U100C A138U | 0 |
| U1A U26A A42G U91C A141G | 0.77 |
| A2G U14A U20C U23A | 0.96 |
| U1C A129U C145U | 0.46 |
| A2G A69G A141G | 0 |
| U1C U20C U45A C66A U112C U119C A141G G144A | 0.05 |
| A2G A24G A43G A59G | 0 |
| A2G A43G U62C A107U A141G | 0 |
| A2G A50G U73G | 0.14 |
| A2G U26C A59G G72A | 0.48 |
| A2G U13A A50U A67G | 0.2 |
| U1C U91C A129C | 1.18 |
| U1C U46A U130A | 1.59 |
| U1A U87A U109C | 0.14 |
| U1C A43G U91A U100C U102C U134A | 0.29 |
| U1C U73C C116A | 0.95 |
| A2G A42G G86A A129U A140U G144U | 0.33 |
| U1A U104C U109A | 1.7 |
| U1C U5C A59G U132A | 0 |
| A2G U12C U45C | 0.5 |
| U1C U15C U46C A57U U109A | 0.1 |
| U1A U91A A138G | 0.36 |

| Variant | self-cleavage |
| --- | --- |
| A2G G41A U45G U91C A142U | 0.32 |
| A2G U20C G58A | 0 |
| U1C U12C A107G | 0.84 |
| A2G G27A U130C U134C | 1.11 |
| A2G U13G U23C G44A | 1.28 |
| A2G C3G A42G A69U U73C | 0.23 |
| U1A G86A A121G U130A | 0.08 |
| U1C A6U U12C U23A | 1.25 |
| U1C U12C A57G | 0.44 |
| U1C U104C C146U | 0.58 |
| U1C U46C C123U | 0.9 |
| U1C U52A U81C U108A A129U A138G | 1.48 |
| U1C U29C A79G U102A A107G U112A U134C | 2.12 |
| U1A U5C U87C U119C | 0 |
| U1C U62C A121C | 0.35 |
| U1C U132C A141G | 1.38 |
| A2G U15C U87C G105A A121G A141G A142G | 0 |
| A2G U20A U23C G33A U81C A107G A117U U143C | 0 |
| U1C U46C U81C A117U | 0.79 |
| A2C U12C U23C C84A | 0.47 |
| U1C A117G C120U | 1.5 |
| A2G C61U A67G | 0.36 |
| A2G C3U U13C A57C G89A A121U | 0.14 |
| A2G U26A U45C G49A G58A U62C A65U U87C | 0.15 |

| Variant | self-cleavage |
| --- | --- |
| U1A U5C A42G G137A | 1.14 |
| A2G A57C A65G U130A | 0.44 |
| A2G U14C U26C U115A | 0 |
| U1C U20C G114A A142G | 0.72 |
| A2G G40A U109A A141G U143A | 0.67 |
| U1C A69U U115C | 0.21 |
| A2G A30U A142G | 0.52 |
| U1C C99U U134A A138G | 0.58 |
| A2G C116U U130C | 0.96 |
| A2G G25C A94G A107G C116U | 0.77 |
| A2G A31G G34A A77G A121G A142G | 0.77 |
| A2G U14C A59G U73A U112C | 0 |
| U1C G105U A117G | 0.54 |
| A2G U9C A50U A69U U73A | 0.21 |
| A2G A94U U100C A107U | 0.26 |
| U1C G44A A141G | 1.19 |
| A2G U13C U26C | 0.35 |
| U1C C19A U52G U87A | 0 |
| A2G A43G G48A U81A | 0.67 |
| U1C U85C U100C G105A U134A | 0.23 |
| A2G U9C U20A U115A U119A U130C | 1.02 |
| U1A U13C U45C U115C U134A | 0 |
| U1C G75A A79G U115A U119C U132C | 1.15 |
| A2G G89U A107G | 0.32 |

| Variant | self-cleavage |
| --- | --- |
| U1C U115C U143A | 0.96 |
| A2G A30G A78G A140G | 0.4 |
| U1C U5A G35U U39C U119A | 0.36 |
| A2G A24G G41A G53A A136U | 0.53 |
| A2G U14C A65G G88A | 0.26 |
| U1C U96C U143C | 0.13 |
| U1A U39C U102A U112C | 1.27 |
| U1C U62C A64U U115C A142G | 0.24 |
| U1G A22G A42G G48A A57G | 0.66 |
| U1A U96A U132C U134A | 0 |
| A2G C66A C98U U119C | 0 |
| U1A G7A U62C | 0.1 |
| U1C A94G U96C | 0.3 |
| U1C G36A A117U | 0.51 |
| A2C C113A A140G | 0.85 |
| A2G A43G C120A | 0 |
| U1G U46C A129G A138U | 0.75 |
| U1C U20C U109C | 0.63 |
| A2G A43G U96A A138G | 0.15 |
| U1A A78U U104C A124U | 2.24 |
| U1C U39C U47C U52C | 0 |
| A2G U13C U15C A64U A69G U96A U109C | 0.89 |
| U1A U14C U62A A64C U104A A142G | 0.34 |
| U1C G10U U96A A107G | 0.34 |

| Variant | self-cleavage |
| --- | --- |
| U1C G33U U47A G72A | 0.79 |
| U1A C18A A94G U134G | 0.39 |
| U1A U26G U85C | 0.17 |
| U1A U13C A22G U115C U130A | 0 |
| U1C U20C U85C U112C | 0 |
| A2G A67G U143A | 1.34 |
| U1C U52C A65G | 0.14 |
| A2G A65G U81A C120U A129U | 0.12 |
| A2G U39C U46A A121G A142G | 0.34 |
| A2G C63A A69U A117U U130C | 0.18 |
| A2G U15C U62C A129U | 0.45 |
| U1C U14C U143C | 0.76 |
| U1C A92G U132C | 0 |
| U1C A65G A136G | 0.19 |
| A2G A94G A136U | 0.68 |
| A2G U12G A59G | 0.61 |
| A2G U26C G58U U73C | 0.12 |
| A2G A42U C120U | 1.06 |
| A2G U12G A42G | 0.87 |
| A2C U14C A50G U119A | 1.32 |
| U1G U102C A138G | 0 |
| U1C U47A A77G U96C G125A | 0.17 |
| U1C U9C A31U A94G A142G | 0.18 |
| A2G A31G A69G | 0.64 |

| Variant | self-cleavage |
| --- | --- |
| A2G G33C U45C A129G | 0 |
| A2G U14C A59U U132C | 0.61 |
| A2G G7U U115A A142U | 1.62 |
| A2G U15C A42U U112C | 1.27 |
| A2G A42G U52C A124G | 0 |
| U1C G35A C71U A136G | 0.75 |
| A2G U13A A30G A124G U130C | 1.53 |
| U1C G53U U96A A142U | 0.03 |
| A2G C68U A117U A138G | 0.51 |
| A2G U14C A59G G74A | 0.18 |
| U1C U13A A77G | 1.23 |
| A2G U13C A64U A121G A129G U143G | 0.54 |
| A2G U20C G35A | 0.69 |
| A2G U26C A57U A59G U143C | 0 |
| U1C U14C A59G U73C A141G | 0.36 |
| U1A A67G U104A | 0.54 |
| A2G U20C U45C U47C A129G | 1.53 |
| U1C G49A A121G | 0.52 |
| U1C A78G A136G A138G | 1.36 |
| A2G U26C G135A | 0.97 |
| U1C A65G U96C A141G | 0 |
| U1A U39C A77U | 0.37 |
| U1C U45G A65G U119C | 0 |
| U1C U14C A42U A57G U62A | 0.03 |

| Variant | self-cleavage |
| --- | --- |
| A2G U12C U45C G58A U134A | 0.2 |
| U1C U5C U14C U102C C111U | 0.61 |
| U1A A43G A65G | 0 |
| U1A U12A A67G G88U | 0.16 |
| U1A U14A U45C | 0.88 |
| A2G G40A A43G A57G U102A A138G U143A | 0.88 |
| A2C U13C A69G A140G | 0.93 |
| U1C U13C U62C U85C | 0 |
| A2G U14C C71G A121G | 0.57 |
| U1G U73A U87A U104C | 0.1 |
| A2G A77G U112C | 1.41 |
| A2G U14C U39C A43G U52A | 0.47 |
| U1C U81G U115C C131U A136G | 0.75 |
| U1A G54A U115C | 1.6 |
| A2G U9A A94G | 1.19 |
| U1A A92G A129G | 0.2 |
| A2G U12G U62A | 0.19 |
| U1A U15A U112C | 0.86 |
| U1G A24G U52C | 0.77 |
| U1C U47A U104C | 0.71 |
| A2G G25A U26A A64U | 0.78 |
| U1C U9C U47A | 0.27 |
| U1C G32C U96C A121U C133A | 0.18 |
